# Measured values published in PubChem BioAssay AID602342 (Broad Institute, 2012).
# About 1,000 (0.29%) of roughly 340,000 compounds were called active. The shares of active, inactive and inconclusive entries below differ from those in the screen.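 The calls were made as follows: active = mean replicate activation score at least 90 and every replicate individually at or above 90; inconclusive = only one of the two criteria met; inactive = neither criterion met.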
# Assay: miR-122 Renilla sensor signal increase in Huh7, primary screen, miR-122 inhibitor project, cell-based, single point, plate reader (AID 602342);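 also: higher luciferase means less miR-122 activity so hits act as miR-122 inhibitors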
# Conditions: Huh7 miR-122 Renilla luciferase sensor, 48 h, stronger effect = higher value, neutral wells = 0, positive control = 100; at 12.5 µM unless noted
row,SMILES,activation (reporter increase)
1,OC(COC(c1ccc(Cl)cc1)c1ccc(Cl)cc1)CN1CCCC1 (centres undefined),inconclusive: 103%
2,CCN(CC)c1ccc(C2C(C(=O)OCCOC)=C(C)NC3=C2C(=O)CC(C)(C)C3)cc1 (centres undefined),active: 95.1%
3,COc1cccc(NS(=O)(=O)c2cc(C)sc2C)c1,active: 121%
4,O=S(=O)(NCc1cccs1)c1cccc(S(=O)(=O)N2CCCCC2)c1,inconclusive: 91.1%
5,CCCN(C)C[C@H]1OCCCC[C@@H](C)Oc2ccc(NC(=O)c3ccncc3)cc2C(=O)N([C@@H](C)CO)C[C@H]1C,inactive: 14% [at 16.7 µM]
6,O=C(Cc1ccccc1)NC1(O)C(=O)c2ccccc2C1=O,inactive: -2.75%
7,CCCCNc1c(-c2cccc(-c3cc(C(C)=O)cs3)c2)nc2ccc(C)cn12,inactive: 8.13%
8,Cc1cc(C)c(S(=O)(=O)Nc2cccc(S(=O)(=O)N3CCOCC3)c2)c(C)c1,inconclusive: 93.3%
9,CCCNC(=O)C[C@@H]1CC[C@H]2[C@H](COc3ccc(NC(=O)Nc4ccccc4F)cc3C(=O)N2C)O1,inconclusive: 100% [at 16.7 µM]
10,CCCCNS(=O)(=O)c1ccc(NC(=O)c2cccs2)cc1,inconclusive: 101%
11,COc1ccc(NC(=O)c2cc(C)nc3ccccc23)cc1S(=O)(=O)Nc1ccccc1Cl,inconclusive: 107%
12,Cc1ccccc1CC1(C)C(=O)Nc2ccc(S(=O)(=O)NC3CCCCC3)cc21 (centres undefined),inconclusive: 97.5%
13,COc1ccccc1NS(=O)(=O)c1cc(NC(=O)Nc2ccc(Cl)cc2Cl)ccc1N1CCCCC1,inconclusive: 90.2%
14,COc1cccc(/C=C/C(=O)c2ccc(NS(=O)(=O)c3ccc(C)cc3)cc2)c1,inconclusive: 91.1%
15,O=c1c[n+]([O-])c2ccccc2n1OCc1c(F)cccc1F,active: 111%
16,O=C(COC(=O)CCC(=O)c1ccc(F)cc1)NCCc1ccccc1,inactive: -6.12%
17,CN(C)c1ccc(C(=O)c2ccc(N(C)C)c3ccccc23)cc1,inconclusive: 92.4%
18,CC(C)c1ccc(S(=O)(=O)Nc2ccc3c(c2)OCO3)cc1,inconclusive: 97.7%
19,CC1CCCC(NC(=O)COC(=O)c2ccccc2NC(=O)c2ccco2)C1C (centres undefined),inconclusive: 171%
20,Cn1ccc2c(-c3ccc(C(=O)O)cc3)cc3c(c21)C1CCC3C1 (centres undefined),inactive: -4.28%
21,CCn1c(-c2cc3c(C(F)(F)F)nn(C)c3s2)n[nH]c1=S,inactive: 7.27%
22,O=C(Nc1cc(F)ccc1F)N1C[C@H]2[C@@H](c3ccccc31)[C@@H](CO)N2C(=O)c1ccccc1,inconclusive: 133% [at 16.7 µM]
23,C[C@H](CO)N1C[C@H](C)[C@H](CN(C)Cc2ccc3c(c2)OCO3)Oc2ccc(NC(=O)Cc3cn(C)c4ccccc34)cc2C1=O,inactive: 2.8% [at 16.7 µM]
24,S=C(NCCc1ccccc1)Nc1ccc(Cl)cc1Cl,inconclusive: 94.9%
25,C[C@@H]1CN([C@H](C)CO)C(=O)c2cccc(NC(=O)c3nc4ccccc4s3)c2O[C@@H]1CN(C)Cc1ccc(C(=O)Nc2ccccc2N)cc1,inconclusive: 95% [at 16.7 µM]

row,SMILES,activation (reporter increase)
1,O=c1[nH]c(=O)c2[nH]c(=O)n(-c3ccccc3)c2[nH]1,inconclusive: 92.2%
2,Cc1ccc(C(C)(C)C)cc1S(=O)(=O)Nc1cccc(S(=O)(=O)NC2=NCCC2)c1,inconclusive: 90.8%
3,CC(NC(=O)CNC(=S)N(Cc1cccs1)C1CCCC1)c1ccccc1 (centres undefined),inconclusive: 108%
4,CCCCNS(=O)(=O)c1ccc2nc(SCC(=O)c3ccccc3OC)[nH]c2c1,inconclusive: 131%
5,COc1cc(OC)cc(C(=O)N[C@H](C(=O)Nc2nc3ccccc3[nH]2)C(C)C)c1,inconclusive: 92.8%
6,C[C@@H]1CN([C@H](C)CO)C(=O)c2cccc(NC(=O)c3cnccn3)c2O[C@@H]1CN(C)C(=O)Nc1cccc2ccccc12,inconclusive: 95% [at 16.7 µM]
7,Cc1ccc(S(=O)(=O)NCCN2CCOCC2)c(C)c1C,inconclusive: 91.8%
8,Cc1ccc(/C=C2/SC(=O)N(CC(=O)N3CCOCC3)C2=O)s1,inactive: -4.73%
9,C[C@H](CO)N1C[C@H](C)[C@@H](CN(C)Cc2ccc(C(F)(F)F)cc2)Oc2c(NC(=O)C3CC3)cccc2C1=O,inconclusive: 101% [at 16.7 µM]
10,CS(=O)(=O)Nc1ccc(C(=O)NCCSC2CCCCC2)cc1,inactive: -3.02%
11,CC(C)CC(COCc1cccc(Cl)c1)N1CCN(C(=O)c2cccc(C(F)(F)F)c2)CCC1=O (centres undefined),inactive: 1.39%
12,CCN(CC)S(=O)(=O)c1cc(NS(=O)(=O)c2cc(Cl)ccc2Cl)ccc1C,active: 392%
13,COCC(=O)NC[C@H]1[C@H](c2ccccc2)[C@@H](CO)N1C(=O)c1ccccc1,inconclusive: 100% [at 16.7 µM]
14,CCc1cccc(NS(=O)(=O)c2ccc3c(c2)N(C)CCO3)c1,active: 172%
15,Cc1ccc(NC(=O)[C@@H]2CCCN2S(=O)(=O)c2ccccc2F)cc1S(=O)(=O)N1CCOCC1,inconclusive: 90.5%
16,O=C(CSc1nc2ccccc2c(=O)n1Cc1ccc(Cl)cc1)NCc1cccs1,inactive: 7.11%
17,C[C@H](CO)N1C[C@H](C)[C@H](CN(C)C)Oc2ccc(NC(=O)Nc3ccccc3)cc2CC1=O,inactive: 1.48% [at 16.7 µM]
18,CCOC(=O)C1=C(C)N=c2s/c(=C3/C(=O)Nc4ccccc43)c(=O)n2C1c1ccc(C)cc1 (centres undefined),inconclusive: 96.8%
19,O=C(Nc1nc2ccc(S(=O)(=O)N3CCCC3)cc2s1)C1CCCCC1,active: 130%
20,CCOC(=O)c1cc(S(=O)(=O)Nc2cccc(OC)c2)cn1C,active: 132%
21,Cc1ccc(S(=O)(=O)NCc2ccco2)c(C)c1C,active: 107%
22,CCOc1cc(C)c(S(=O)(=O)NCCCn2ccnc2)cc1C,inconclusive: 93.2%
23,C[C@@H]1CN([C@@H](C)CO)C(=O)c2cccc(NC(=O)C3CC3)c2O[C@@H]1CN(C)Cc1ccc(C(=O)Nc2ccccc2N)cc1,inconclusive: 91% [at 16.7 µM]
24,COc1ccccc1NS(=O)(=O)c1cc(Cl)ccc1OC,inconclusive: 91%
